In all, about 310,000 compounds went through this assay and about 2,200 (0.71%) showed an effect of 50% or more. Effects have a minus sign here. This is one part of the list.

For this test, the target named is human ether-à-go-go-related gene (hERG) potassium channel (human, UniProt Q12809). The experiment in a line: primary screen, population patch clamp on CHO cells stably expressing hERG.
Sequence of human ether-à-go-go-related gene (hERG) potassium channel (Q12809 whole entry, looked up): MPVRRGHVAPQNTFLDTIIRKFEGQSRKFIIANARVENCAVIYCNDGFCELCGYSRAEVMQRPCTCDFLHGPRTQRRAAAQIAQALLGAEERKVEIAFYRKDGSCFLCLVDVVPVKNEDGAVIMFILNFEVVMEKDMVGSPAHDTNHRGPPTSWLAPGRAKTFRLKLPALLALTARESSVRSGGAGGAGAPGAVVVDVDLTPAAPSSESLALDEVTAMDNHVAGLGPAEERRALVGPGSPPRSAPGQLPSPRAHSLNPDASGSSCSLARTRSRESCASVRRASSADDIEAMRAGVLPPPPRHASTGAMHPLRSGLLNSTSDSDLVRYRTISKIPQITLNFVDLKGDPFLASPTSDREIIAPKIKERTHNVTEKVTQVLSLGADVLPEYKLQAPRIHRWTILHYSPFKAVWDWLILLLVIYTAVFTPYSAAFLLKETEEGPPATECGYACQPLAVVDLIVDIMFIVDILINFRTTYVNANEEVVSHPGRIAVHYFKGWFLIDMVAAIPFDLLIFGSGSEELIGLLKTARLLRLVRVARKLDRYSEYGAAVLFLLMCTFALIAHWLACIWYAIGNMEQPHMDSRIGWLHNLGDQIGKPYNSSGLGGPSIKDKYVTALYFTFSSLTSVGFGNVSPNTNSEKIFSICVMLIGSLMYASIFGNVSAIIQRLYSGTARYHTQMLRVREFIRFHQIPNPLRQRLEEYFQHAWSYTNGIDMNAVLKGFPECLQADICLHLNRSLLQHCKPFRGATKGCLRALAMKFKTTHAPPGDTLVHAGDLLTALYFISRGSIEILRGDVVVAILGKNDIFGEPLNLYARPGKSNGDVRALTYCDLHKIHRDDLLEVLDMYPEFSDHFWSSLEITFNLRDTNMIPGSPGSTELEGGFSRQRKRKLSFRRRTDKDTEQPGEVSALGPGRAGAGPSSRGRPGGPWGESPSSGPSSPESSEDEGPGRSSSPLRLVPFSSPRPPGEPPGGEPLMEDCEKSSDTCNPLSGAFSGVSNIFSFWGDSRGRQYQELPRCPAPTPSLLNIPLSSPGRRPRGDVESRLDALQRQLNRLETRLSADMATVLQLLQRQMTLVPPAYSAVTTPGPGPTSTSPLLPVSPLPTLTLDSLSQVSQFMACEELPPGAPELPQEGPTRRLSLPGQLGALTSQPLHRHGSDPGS
As to `COc1ccc(C(=O)Nn2c(C)nc3ccccc3c2=O)cc1`, the “hERG current change (%, negative = inhibition) at 1uM” value stood at 10.4%.

As to `CCc1cc2c(-c3ccccc3)cc(=O)oc2cc1OCC(C)=O`, the “hERG current change (%, negative = inhibition) at 1uM” value is given as 8.68%.

With `CCOC(=O)N1CCN(C(=O)C2CCC(CNS(=O)(=O)c3ccc(Cl)cc3)CC2)CC1` (stereo not shown), the “hERG current change (%, negative = inhibition) at 1uM” value stood at 3.08%.

Turning to `O=C(Nc1ccc(-c2nc3cccnc3s2)cc1)c1ccc(Cl)nc1`, the “hERG current change (%, negative = inhibition) at 1uM” value is given as 7.19%.

`COc1ccc(CN2C3CCC2CC(NC(=O)c2cc(OC)c(OC)c(OC)c2)C3)cc1` (stereo not shown): the “hERG current change (%, negative = inhibition) at 1uM” value is on record as 7%.

With `Cc1cc(-c2ccccc2)n(-c2cc(N/N=C/c3ccccc3O)ncn2)n1`, the “hERG current change (%, negative = inhibition) at 1uM” value was -0.826%.

With `CCOC(=O)/C=C1\CC(=O)Nc2cc(C)c(C)cc2N1`, the “hERG current change (%, negative = inhibition) at 1uM” value is on record as -4.77%.

In the case of `COc1cc(SC)ccc1C(=O)Nc1nc(C)cc(C)n1`, the “hERG current change (%, negative = inhibition) at 1uM” value was found to be 16.4%.

In the case of `CCCC(=O)N(CCN1CCOCC1)c1nc2ccc(OCC)cc2s1.Cl`, the “hERG current change (%, negative = inhibition) at 1uM” value is given as 5.85%.

Consider `O=C(O)c1ccc(CSc2nc3ccc(NC(=O)c4ccccc4C(=O)O)cc3s2)cc1`, for which the “hERG current change (%, negative = inhibition) at 1uM” value was 23.1%.

As to `CCc1cc(=O)oc2cc(OCC(=O)NCCCn3ccnc3)c(Cl)cc12`, the “hERG current change (%, negative = inhibition) at 1uM” value came to 20.2%.

`O=S(=O)(Nc1ccc(S(=O)(=O)Nc2nccs2)cc1)c1ccc(Br)cc1`: the “hERG current change (%, negative = inhibition) at 1uM” value is reported as 20%.

Regarding `Cc1ccc(C)c(CNS(=O)(=O)c2c(C)[nH]c(C)c2C(=O)N2CCCC2)c1`, the “hERG current change (%, negative = inhibition) at 1uM” value is recorded as -21.1%.

Consider `COC(=O)c1nc(-c2ccccc2)oc1N1CCOCC1`, for which the “hERG current change (%, negative = inhibition) at 1uM” value was 13.1%.

Regarding `C#CCOCCOCCOCCNc1nc(N2CCN(C(=O)[C@H]([C@@H](C)O)n3cc(CCCC[NH3+])nn3)CC2)nc(N2CCN(C(=O)[C@H](CCCC[NH3+])n3cc(CCC(=O)O)nn3)CC2)n1.[Cl-]`, the “hERG current change (%, negative = inhibition) at 1uM” value is reported as -13.1%.

As to `CC(C)C(NC(=O)C1CCCCC1)C(=O)NCCc1ccccc1` (stereo not shown), the “hERG current change (%, negative = inhibition) at 1uM” value was 8.49%.

Regarding `CCOc1ccc(C(=O)CCc2nc3ccccc3s2)cc1`, the “hERG current change (%, negative = inhibition) at 1uM” value was -4.55%.

For the compound `C=CCN(C(=O)Nc1ccc(Cl)cc1)C1CC(=O)N(c2ccc(OC)cc2)C1=O` (stereo not shown), the “hERG current change (%, negative = inhibition) at 1uM” value is 4.12%.

`CC(C)(C)NC(=O)C1Cc2ccccc2CN1S(=O)(=O)c1ccc(F)cc1` (stereo not shown): the “hERG current change (%, negative = inhibition) at 1uM” value came to 3.91%.

Regarding `COCCOC(=O)C1=C(C)NC(=O)NC1c1cn(-c2ccccc2)nc1-c1cccs1` (stereo not shown), the “hERG current change (%, negative = inhibition) at 1uM” value is -2.46%.

Turning to `CN1C(=O)[C@H]2[C@@H](C3CC3)N3C(=O)CN(Cc4ccc(-c5ccccc5)cc4)C(=O)[C@@]3(C)[C@H]2C1=O`, the “hERG current change (%, negative = inhibition) at 1uM” value was -13%.

Regarding `CCOC(=O)N1CCN(C(=O)CCCCn2c(=S)[nH]c3ccsc3c2=O)CC1`, the “hERG current change (%, negative = inhibition) at 1uM” value is given as 5.21%.

For `Cc1ccc(C(=O)O/N=C/c2c(N3CCOCC3)n(C)c3ccccc23)cc1`, the “hERG current change (%, negative = inhibition) at 1uM” value came out at 3.23%.

As to `CCN(Cc1ccccc1)C(=O)c1cc2c(=O)oc3ccc(C)cc3c2s1`, the “hERG current change (%, negative = inhibition) at 1uM” value amounted to 8.04%.

Turning to `COc1ccc(Br)cc1CN(C)CC(O)COc1ccc(Br)cc1` (stereo not shown), the “hERG current change (%, negative = inhibition) at 1uM” value is -4.15%.

Consider `O=C(NNc1cc(Cl)cc(Cl)c1)c1c(F)cccc1Cl`, for which the “hERG current change (%, negative = inhibition) at 1uM” value amounted to 10.2%.

Consider `CN1CCN(CC(=O)Nc2ccccc2C(F)(F)F)CC1.O=C(O)C(=O)O`, for which the “hERG current change (%, negative = inhibition) at 1uM” value was 12.9%.

With `CCCc1nc2sc3c(SCC(=O)NCc4ccco4)ncnc3c2c2c1CCC2`, the “hERG current change (%, negative = inhibition) at 1uM” value is reported as 5.4%.

As to `O=C(Nc1ccccc1N1CCCC1)c1ccc(Cl)cc1Cl`, the “hERG current change (%, negative = inhibition) at 1uM” value is 4.5%.

As for `Cc1ccc(NC(=O)COc2ccc3oc4c(c3c2)CCCC4)nc1`, the “hERG current change (%, negative = inhibition) at 1uM” value is on record as 2.88%.

Regarding `Cl.OC(C#CCN1CCOCC1)(c1ccccc1)C1CC1` (stereo not shown), the “hERG current change (%, negative = inhibition) at 1uM” value came to 21%.

For `COc1ccc(C(=O)/C=C/Nc2ccc(S(N)(=O)=O)cc2)cc1OC`, the “hERG current change (%, negative = inhibition) at 1uM” value worked out at 14.9%.

In the case of `CC#CCN1c2ccccc2[C@]23C[C@@H](C(=O)OC)N(C(=O)NCCBr)C2=NC(C(=O)OC)=C(C(=O)OC)[C@H]13`, the “hERG current change (%, negative = inhibition) at 1uM” value amounted to 17.9%.

With `CCC(=O)N(C)CCc1cc2c(c(OC)c1/C=N/NC(=O)[C@H]1C[C@@H]1c1ccccc1)OCO2`, the “hERG current change (%, negative = inhibition) at 1uM” value stood at 11.5%.

As to `CCOC(=O)c1ccc(NC(=O)CSc2nnc(CNC(=O)c3ccccc3F)o2)cc1`, the “hERG current change (%, negative = inhibition) at 1uM” value stood at 7.32%.

For the compound `COc1ccc(-c2nc3ccccc3nc2-c2ccc(OC)cc2)cc1`, the “hERG current change (%, negative = inhibition) at 1uM” value was 8.2%.

As for `COC(=O)c1ccc(N2CCCCC2)c(NC(=O)c2ccco2)c1`, the “hERG current change (%, negative = inhibition) at 1uM” value was -0.798%.

Turning to `COC(=O)c1cc(OC(=O)CCc2ccc(OC)c(OC)c2)cc(C(=O)OC)c1`, the “hERG current change (%, negative = inhibition) at 1uM” value turned out to be 14.9%.

In the case of `CC1CCCCC1NC(=S)NC(=O)c1ccccc1Br` (stereo not shown), the “hERG current change (%, negative = inhibition) at 1uM” value is 3.64%.

`O=C(NCCc1ccc(Cl)cc1)C1CCN(S(=O)(=O)c2cccc3nonc23)CC1`: the “hERG current change (%, negative = inhibition) at 1uM” value is reported as 0.171%.

`Cc1nc(N2CCC(C)CC2)c2c(C)c(C(=O)Nc3ccc(C(F)(F)F)cc3)sc2n1`: the “hERG current change (%, negative = inhibition) at 1uM” value was determined as 15.6%.

For `CC(=O)c1ccc2c3c(cccc13)CC2`, the “hERG current change (%, negative = inhibition) at 1uM” value is reported as 10.2%.

Consider `Cc1ccc(S(=O)(=O)c2nc(-c3cccs3)oc2SCC(N)=O)cc1`, for which the “hERG current change (%, negative = inhibition) at 1uM” value was found to be 14.4%.

These data come from article PMC4336329 (PLoS ONE, 2015).
